# The campaign covered roughly 360,000 compounds. About 520 (0.14%) were called active. Inconclusive means that the source gave no clear call. Such entries were picked first, then a sample of the others. Calls come from the whole dose curve; as a rule, active = well fitted inhibition curve with a large enough effect; inconclusive = small, poorly fitted or top-dose-only effect; inactive = no such curve, though single readings can be large or run the other way. No potency is given beside an inconclusive call; the fits are too rough.
# Biological target: Rap guanine nucleotide exchange factor 3 (Homo sapiens) (UniProt O95398)
# Sequence of UniProt O95398 (O95398 whole entry, looked up): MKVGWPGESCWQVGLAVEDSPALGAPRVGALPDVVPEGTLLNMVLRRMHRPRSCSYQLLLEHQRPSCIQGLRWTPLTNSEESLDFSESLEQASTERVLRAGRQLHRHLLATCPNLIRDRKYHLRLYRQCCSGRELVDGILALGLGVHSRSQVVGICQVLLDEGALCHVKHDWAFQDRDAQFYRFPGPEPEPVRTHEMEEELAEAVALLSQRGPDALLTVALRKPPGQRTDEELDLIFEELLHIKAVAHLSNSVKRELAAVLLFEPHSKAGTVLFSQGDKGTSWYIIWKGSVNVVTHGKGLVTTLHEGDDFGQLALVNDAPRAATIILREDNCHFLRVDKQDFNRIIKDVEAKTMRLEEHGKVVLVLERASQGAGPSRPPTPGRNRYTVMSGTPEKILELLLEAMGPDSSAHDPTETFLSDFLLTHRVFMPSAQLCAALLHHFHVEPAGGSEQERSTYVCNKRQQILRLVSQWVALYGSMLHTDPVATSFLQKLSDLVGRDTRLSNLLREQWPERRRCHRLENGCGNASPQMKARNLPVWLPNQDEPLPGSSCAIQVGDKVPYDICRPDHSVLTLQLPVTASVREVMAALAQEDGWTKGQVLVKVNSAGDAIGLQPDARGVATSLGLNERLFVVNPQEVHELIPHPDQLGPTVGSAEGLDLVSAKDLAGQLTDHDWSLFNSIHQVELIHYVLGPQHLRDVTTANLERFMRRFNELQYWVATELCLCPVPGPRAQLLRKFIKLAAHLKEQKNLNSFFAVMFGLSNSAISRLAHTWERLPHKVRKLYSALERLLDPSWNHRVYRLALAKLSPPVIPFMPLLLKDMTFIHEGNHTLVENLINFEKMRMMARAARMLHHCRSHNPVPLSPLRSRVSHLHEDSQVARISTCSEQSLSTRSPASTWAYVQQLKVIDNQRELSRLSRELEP
# Assay: qHTS for Antagonist of cAMP-regulated guanine nucleotide exchange factor 3 (EPAC1): primary screen; note: nearly all actives have a fitted effect of over 50% in size;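 for activity change, negative = inhibition: plate controls were vehicle for no effect and positive control for full effect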
# Conditions: EPAC1 GEF assay, Rap1b-BODIPY-GDP exchange fluorescence; activity change, negative = inhibition: at 115 µM (top of the series)
# Potency is the fitted concentration of half-maximal effect; tags give direction and shape of the fitted curve.
SMILES,Potency,"activity change, negative = inhibition"
COc1cc(/C=C2\SC(=O)NC2=O)ccc1Oc1ccc([N+](=O)[O-])cc1[N+](=O)[O-],"inconclusive [inhibitor, partial curve]",–
CCCc1sc(N2CCCC(C(N)=O)C2)nc1-c1ccccc1 (stereo unspecified),–,inactive: -0.529%
O=C(Nc1ccc(Br)cc1)c1cc([N+](=O)[O-])cc([N+](=O)[O-])c1,–,inactive: -19.4%
Cc1oc(-c2cccs2)cc1C(=O)N1CCCC(C)(C(=O)O)C1 (stereo unspecified),–,inactive: 0.252%
CCOc1ccc(N(CC(=O)NC2CCCCC2)C(=O)CCCC(=O)Nc2ccccn2)cc1,"inconclusive [inhibitor, full curve, poor fit]",–
COCCC(=O)N1CCC(Oc2ccc(C(=O)NCCc3cnn(C)c3)cc2)CC1,"inconclusive [inhibitor, single point]",–
Cc1ccc(S(=O)(=O)N2[C@@H](c3ccc(Cl)cc3)C(C(=O)O)=CC[C@H]2c2ccc(Cl)c(Cl)c2)cc1,"inconclusive [inhibitor, partial curve]",–
Cc1ccc(-c2nc(NCc3ccco3)n(S(C)(=O)=O)n2)cc1,"inconclusive [inhibitor, partial curve]",–
O=[N+]([O-])c1cccc(C=NN=C2c3ccccc3-c3ccccc32)c1,"inconclusive [inhibitor, full curve]",–
COc1ccc(C(=O)CSc2n[nH]c(-c3ccncc3)n2)cc1[N+](=O)[O-],"inconclusive [inhibitor, partial curve]",–
O=c1c2ccccc2nc(/C=C/c2cccnc2)n1CCc1ccccc1,active: 79.4 µM,–
COC(=O)[C@@]12C[C@@H](CC(=O)NCc3ccc(C)o3)C(=O)N(CCc3ccc(OC)c(OC)c3)C1=CCC(C)(C)C2,–,inactive: -27.7%
CCn1c(C)nc2cc(C(=O)N/N=C(\C)c3ccccc3O)ccc21,"inconclusive [inhibitor, full curve]",–
C=CCOc1ccc(Br)cc1/C=C1\NC(=S)N(C(C)=O)C1=O,"inconclusive [inhibitor, single point]",–
C=CC[C@@H](CC(=O)N[C@@H](CO)Cc1ccccc1)C(=O)N[C@H](COC(=O)[C@@H](CC=C)Cc1ccc(F)cc1)C(C)(C)C,"inconclusive [inhibitor, full curve, poor fit]",–
Cc1cc(C)n2[nH]c(=O)c(N=Nc3ccc(S(N)(=O)=O)cc3)c2n1,"inconclusive [inhibitor, partial curve, poor fit]",–
COc1ccc(NC(=S)NNc2ccc(S(=O)(=O)Nc3ccccc3C(=O)O)cc2[N+](=O)[O-])cc1,"inconclusive [inhibitor, single point]",–
CC(=O)NC(c1cccs1)c1cc(Br)c2cccnc2c1O (stereo unspecified),"inconclusive [inhibitor, partial curve]",–
CN1C(=O)C(N=Nc2ccccc2C(=O)O)N(C)C1=S (stereo unspecified),"inconclusive [inhibitor, single point]",–
CCOC(=O)N1CCN(C(=O)c2cc(S(=O)(=O)N3CCc4ccccc43)ccc2OC)CC1,"inconclusive [inhibitor, full curve, poor fit]",–
O=C(/C=C\NCC(=O)c1ccccc1)c1ccc(F)cc1,–,inactive: 9.41%

SMILES,Potency,"activity change, negative = inhibition"
CCN1C(=O)[C@H]2[C@@H](c3ccc(-c4ccccc4)c(OC)c3)N[C@@](CC(C)C)(C(=O)OC)[C@H]2C1=O,"inconclusive [inhibitor, full curve, poor fit]",–
O=C(COC(=O)c1ccc(NS(=O)(=O)c2cccs2)cc1)Nc1nc2c(F)c(F)c(F)cc2s1,"inconclusive [inhibitor, partial curve, poor fit]",–
Cc1ccc2c(CSc3nncn3C)cc(=O)oc2c1C,"inconclusive [inhibitor, full curve, poor fit]",–
CCN(CC)S(=O)(=O)c1ccc(C)c(NC(=O)COC(=O)CNC(=O)c2ccc(C(C)(C)C)cc2)c1,"inconclusive [inhibitor, partial curve, poor fit]",–
COc1ccc(OC)c(N2C(=O)[C@@H]3C(c4ccccc4Cl)=NO[C@@H]3C2=O)c1,"inconclusive [inhibitor, partial curve]",–
Cc1ccc(C(=O)/C=C/c2ccc(F)cc2)o1,"inconclusive [inhibitor, partial curve]",–
COc1ccc(NC(=O)CSc2nc(O)cc(=O)n2-c2ccccc2)cc1,"inconclusive [inhibitor, single point]",–
Cc1ccc(S(=O)(=O)n2nc(C)c(S(=O)(=O)N3CCOCC3)c2C)cc1,"inconclusive [inhibitor, partial curve]",–
CCCCc1ccc(NC(=S)Nc2ccc(Cl)c(S(=O)(=O)N(C)C)c2)cc1,"inconclusive [inhibitor, partial curve, poor fit]",–
CC1(c2ccc3ccccc3c2)NC(=O)N(CC(=O)N2CCN(Cc3ccc(C#N)cc3)CC2)C1=O (stereo unspecified),"inconclusive [inhibitor, single point]",–
Cn1c(CCN2CCCCC2)nc2cc(NC(=O)NC3CCCCC3)ccc21,"inconclusive [inhibitor, full curve, poor fit]",–
CN(C)c1ccc(/C=C2/C[N+](C)(C)C/C(=C/c3ccc(N(C)C)cc3)C2=O)cc1,"inconclusive [inhibitor, partial curve]",–
C=CCNc1nc(C(=O)OCC(=O)c2cccc(Br)c2)cs1,"inconclusive [inhibitor, partial curve]",–
CN(C)CCNC(=O)c1sc2nc(-c3ccccc3)cc(C(F)(F)F)c2c1N,–,inactive: -8.76%
C/C(CC(=O)Nc1ccccc1C#N)=N\NC(=O)c1ccncc1,"inconclusive [inhibitor, single point]",–
CN(C)c1ccc(/C=C(\C#N)c2ccccc2)cc1,–,inactive: -0.158%
CCOC(=O)c1c(N)sc(C(=O)Nc2ccccc2)c1C,"inconclusive [inhibitor, partial curve]",–
Cc1onc(C(=O)Nc2sc3c(c2C(N)=O)CCCC3)c1[N+](=O)[O-],–,inactive: -14%
COc1cccc(OCCn2cc(/C=N/NC(=O)c3ccncc3)c3ccccc32)c1,"inconclusive [inhibitor, partial curve, poor fit]",–
Cc1cccc(OCC(=O)NCC(=O)N/N=C/c2ccc(O)cc2O)c1,"inconclusive [inhibitor, partial curve]",–
CCOc1ccc(CNC(=O)C2Cc3cc(S(=O)(=O)N4CCCC4)ccc3N2C(C)=O)cc1 (stereo unspecified),"inconclusive [inhibitor, single point]",–

SMILES,Potency,"activity change, negative = inhibition"
C#CCOCCOCCOCCNc1nc(N2CCN(C(=O)CCCCCCCCCCNC(=O)[C@H](CCCCN)n3cc(CCCC(=O)O)nn3)CC2)nc(N2CCN(C(=O)CCCCCCCCCCNC(=O)[C@H](CCCN=C(N)N)n3cc(C[C@@H](C)CC)nn3)CC2)n1,"inconclusive [inhibitor, single point]",–
COc1cc(OC)c2c(-c3cccc(-c4ccc(CO)cc4)c3)cc(=O)oc2c1,"inconclusive [inhibitor, single point]",–
Nc1ncnc2c1nc(Sc1ccc(Cl)cc1)n2[C@@H]1O[C@@H]2COP(=O)(O)O[C@H]2[C@H]1O,"inconclusive [inhibitor, partial curve, poor fit]",–
Cc1cc(Cl)n2c(nc3ccccc32)c1C#N,"inconclusive [inhibitor, partial curve]",–
O=C(Nc1cccc2ncccc12)c1ccco1,–,inactive: 13.3%
COc1ccc(Cc2nnc(N/N=C/c3ccccc3O)[nH]c2=O)cc1OC,"inconclusive [inhibitor, partial curve]",–
NNS(=O)(=O)c1ccc2c(c1)Cc1cc(S(=O)(=O)NN)ccc1-2,"inconclusive [inhibitor, single point]",–
O=C(COC(=O)/C=C/c1ccc(Cl)c(Cl)c1)NC1CC1,–,inactive: 8.08%
Cc1ccc2oc(Nc3nc(-c4ccccc4)cc(=O)[nH]3)nc2c1,"inconclusive [inhibitor, single point]",–
COC(=O)c1ccc(/C=C2\CCn3c2nc2cc(C(=O)O)ccc2c3=O)cc1,"inconclusive [inhibitor, single point]",–
CCCC(=O)N(Cc1cccnc1)c1nc2c(OC)ccc(Cl)c2s1,"inconclusive [inhibitor, single point]",–
COc1ccc(C2=NN(c3ccccc3)C(c3cn(CCC(=O)O)nc3-c3ccccc3)C2)cc1 (stereo unspecified),"inconclusive [inhibitor, single point]",–
CCNc1nc(-c2sc(NC(=O)C(C)(C)C)nc2C)c(-n2cc(-c3ccccc3)nn2)s1,–,inactive: 1.17%
CCCCNC(=O)c1cn(C)c2ccc(S(=O)(=O)N3CC(C)CC(C)C3)cc2c1=O (stereo unspecified),–,inactive: 1.22%
CCCc1nnc(SCC(=O)NC2CC2)n1C,"inconclusive [inhibitor, partial curve]",–
COc1ccc2sc(-c3ccc(SC)cc3)c(C#CC(C)(C)O)c2c1,"inconclusive [inhibitor, partial curve, poor fit]",–
CCOC(=O)CNC(=O)C1Cc2ccccc2CN1S(=O)(=O)c1cccs1 (stereo unspecified),–,inconclusive: -31.1% [inhibitor]
Cc1nc(N2CCN(Cc3ccc4c(c3)OCO4)CC2)c2cc(-c3ccccc3)sc2n1,–,inactive: -14%
CC(C)c1cc(C(=O)OCC(=O)NC(=O)NCc2ccco2)c(O)c(C(C)C)c1,"inconclusive [inhibitor, single point]",–

# Reference: PubChem BioAssay AID720709 (National Center for Advancing Translational Sciences (NCATS), 2013)
